Where “and” joins values, the source holds several entries; their conditions need not be identical. Equal values may be shown once. Among all 270,000 compounds or so, about 5,800 (2.1%) were called active. The inconclusive results got no clear call from the source; some entries with a clear call stand among them for comparison. Calls come from the whole dose curve; as a rule, active = well fitted inhibition curve with a large enough effect; inconclusive = small, poorly fitted or top-dose-only effect; inactive = flat fitted curve, though single readings scatter. Where the call is inconclusive, the potency comes from a doubtful curve fit.
What follows are molecules tested against Microtubule-associated protein tau (Homo sapiens) (UniProt P10636) (assay: qHTS for Inhibitors of Tau Fibril Formation, Thioflavin T Binding). Details: recombinant tau K18 P301L (four-repeat tau fragment), heparin-induced fibrillization, ThT fluorescence; series mostly up to 57.4 µM; activity, negative = inhibition: at the top concentration.
Procedure, shortened: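 Tau K18 P301L fragment (15 uM unlabeled plus 0.24 uM Alexa 594-labeled) in 100 mM sodium acetate pH 7 with compound, fibrillization induced by 20 uM heparin for 6 hr at 37 C. Thioflavin T (30 uM) added, fluorescence read after 1 hr (ex 450, em 510 nm).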
% is set by controls: 0 for no effect and ±100 for the full control effect; potency is the fitted concentration of half-maximal effect; tags give direction and shape of the fitted curve.
Note: nearly all actives have a fitted effect of over 55% in size.

Chain of UniProt P10636 (P10636 whole entry, looked up, the tested form may be a part): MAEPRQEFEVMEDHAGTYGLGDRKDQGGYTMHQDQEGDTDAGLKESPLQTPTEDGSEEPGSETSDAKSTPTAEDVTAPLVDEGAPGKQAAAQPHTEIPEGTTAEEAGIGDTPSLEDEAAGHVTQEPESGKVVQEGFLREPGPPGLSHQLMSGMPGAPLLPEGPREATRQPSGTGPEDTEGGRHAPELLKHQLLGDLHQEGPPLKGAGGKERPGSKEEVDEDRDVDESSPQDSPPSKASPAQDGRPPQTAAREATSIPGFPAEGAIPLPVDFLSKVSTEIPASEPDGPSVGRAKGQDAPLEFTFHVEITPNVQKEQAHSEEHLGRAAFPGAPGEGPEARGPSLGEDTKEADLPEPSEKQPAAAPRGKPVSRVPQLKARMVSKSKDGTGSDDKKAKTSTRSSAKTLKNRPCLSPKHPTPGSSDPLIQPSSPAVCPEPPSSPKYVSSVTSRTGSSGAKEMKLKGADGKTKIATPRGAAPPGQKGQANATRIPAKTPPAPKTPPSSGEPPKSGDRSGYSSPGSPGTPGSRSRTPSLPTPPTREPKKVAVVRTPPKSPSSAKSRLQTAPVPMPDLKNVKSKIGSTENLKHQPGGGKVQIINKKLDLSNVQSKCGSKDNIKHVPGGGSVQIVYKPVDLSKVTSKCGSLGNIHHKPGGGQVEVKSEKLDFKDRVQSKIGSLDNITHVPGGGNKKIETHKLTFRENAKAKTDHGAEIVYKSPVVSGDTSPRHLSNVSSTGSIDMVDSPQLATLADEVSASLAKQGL

Q: How did the Potency turn out when `O=C1CC(=Nc2ccccc2)NN1c1ccccc1` was run?
A: inconclusive: 15.8 µM [inhibitor, partial curve]

Q: How did the Potency turn out when `O=C(O)c1ccc2c(=O)n3cc(C(=O)c4ccccc4O)cc(Cl)c3nc2c1` was run?
A: inconclusive: 5.01 µM [inhibitor, partial curve]

Q: For `O=C(CSCc1ccccc1)N/N=C/c1ccc(OCC(=O)N2CCCCC2)cc1`, which Potency is on record?
A: inconclusive: 2 µM [inhibitor, full curve]

Q: With `CCOc1cc(CNc2ccccc2)cc(Br)c1OCc1ccccc1F` as the molecule, how does the Potency read?
A: inconclusive: 44.7 µM [inhibitor, single point]

Q: For `CC(=C1C(=O)c2ccccc2C1=O)N1CCN(c2ccc(F)cc2)CC1`, which Potency is on record?
A: inconclusive: 20 µM [inhibitor, partial curve]

Q: Which “activity, negative = inhibition” value does the source give for `COc1ccc(OC)c(C(=O)CN2C(=O)N(c3cc(C)cc(C)c3)S(=O)(=O)c3ccccc32)c1` here?
A: inactive: -8.58%

Q: Which “activity, negative = inhibition” value does the source give for `COC(=O)C1CSC(C(=O)OC)N1C(=O)CN1CCN(c2ccc(OC)cc2)CC1` (centres undefined) here?
A: inactive: -7.48%

Q: With `Clc1cccc(-n2ncc3c(NCCC4=CCCCC4)ncnc32)c1` as the molecule, how does the Potency read?
A: inconclusive: 1.78 µM [inhibitor, full curve]

Q: How did the Potency turn out when `C/C(=N\NC(=O)c1cc(-c2cccc([N+](=O)[O-])c2)n[nH]1)c1ccc(F)cc1` was run?
A: inconclusive: 0.355 µM [inhibitor, full curve]

Q: How did the Potency turn out when `CCN1CCN(c2oc(-c3ccc(COc4ccc(OC)cc4)o3)nc2C#N)CC1` was run?
A: inconclusive: 14.1 µM [inhibitor, single point]

Q: Which “activity, negative = inhibition” value does the source give for `CC(C)(C)OC(=O)N1CCC(c2c(C(=O)NCCN3CCOCC3)cnn2-c2cccc(F)c2)CC1` here?
A: inactive: -7.02%

Q: How did the Potency turn out when `CCN(CC)c1ccc(NC(=O)Cn2cc3c(n2)CCC(C)C3)c(C)c1` (centres undefined) was run?
A: inconclusive: 14.1 µM [inhibitor, partial curve]

Q: With `C(=N\Nc1nc(-c2cccnc2)nc2ccccc12)/c1ccccc1` as the molecule, how does the “activity, negative = inhibition” value read?
A: inactive: -9.52%

Q: For `Clc1ccc(-c2ccc(CNCCSc3nnnn3-c3ccccc3)o2)cc1`, which Potency is on record?
A: inconclusive: 15.8 µM [inhibitor, single point]

Q: Which “activity, negative = inhibition” value does the source give for `Fc1ccc(/C=N/Nc2nnnn2-c2ccccc2)cc1` here?
A: inactive: 0.621%

Q: Which “activity, negative = inhibition” value does the source give for `COc1ccc(NC(=O)N2CCC(CN3CCCC3)CC2)c(OC)c1` here?
A: inactive: -4%

Q: With `COC(=O)c1ccccc1NC(=O)CSc1cc(-c2ccccc2)nc(C)n1` as the molecule, how does the “activity, negative = inhibition” value read?
A: inactive: -16.8%

Q: With `COc1cccc(OC)c1OCCCOc1cccc2cccnc12` as the molecule, how does the “activity, negative = inhibition” value read?
A: inactive: -14.8%

Q: For `COc1nc(-c2ccc(Cl)cc2)ccc1-c1noc(-c2ccco2)n1`, which Potency is on record?
A: inconclusive: 14.1 µM [inhibitor, partial curve]

Q: Which “activity, negative = inhibition” value does the source give for `O=C(Nc1nc(-c2ccc([N+](=O)[O-])cc2)cs1)c1c(F)cccc1F` here?
A: inactive: -2.28%

Q: With `Cc1ccc(S(=O)(=O)NCCc2nnc3ccc(SCc4cccc(F)c4)nn23)cc1` as the molecule, how does the “activity, negative = inhibition” value read?
A: inactive: -2.49%

Q: With `Cc1cccc(-n2ncc3c(N4CCc5ccccc54)ncnc32)c1` as the molecule, how does the Potency read?
A: inconclusive: 0.501 µM [inhibitor, full curve]

Q: For `CCCNC(=O)CCCCn1c(=S)[nH]c2c([nH]c3ccc(OC)cc32)c1=O`, which “activity, negative = inhibition” value is on record?
A: inactive: -1.74%

Q: For `O=C(COC(=O)c1cc[n+]([O-])cc1)Nc1ccc([N+](=O)[O-])cc1`, which “activity, negative = inhibition” value is on record?
A: inactive: -17%

Q: `COc1ccc(OC)c(/C=N/N=C2\SCC(=O)N2Cc2ccco2)c1` was tested. Which “activity, negative = inhibition” value did it give?
A: inactive: -4.35%

Q: `Cc1ccc(O)c(NC2=C(Cl)C(=O)N(Cc3ccccc3)C2=O)c1` was tested. Which Potency did it give?
A: active: 12.6 µM

Q: Which Potency does the source give for `N#Cc1nc(-c2ccc(OCc3ccccc3)cc2)oc1NCc1cccnc1` here?
A: inconclusive: 3.55 µM [inhibitor, full curve]

Q: How did the “activity, negative = inhibition” value turn out when `Cc1ccc(N2CCN(c3ncnc4onc(-c5ccc(F)cc5)c34)CC2)c(C)c1` was run?
A: inactive: -4.7%

Q: With `CC(=O)OCCCn1c(C)[n+](C)c2cc(Cl)c(Cl)cc21` as the molecule, how does the “activity, negative = inhibition” value read?
A: inactive: -9.92%

Q: `COc1ccc(OC)c(NC(=O)Nc2cccc(OCc3cc(=O)n4cc(C)ccc4n3)c2)c1` was tested. Which Potency did it give?
A: inconclusive: 6.31 µM [inhibitor, partial curve]

Q: How did the Potency turn out when `CC(C)CNC(=O)NC(=O)CSc1nc2ccccc2n1CC(C)C` was run?
A: inconclusive: 1.12 µM [inhibitor, full curve]

Q: How did the Potency turn out when `O=[N+]([O-])c1cc(/C=N/N2CCN(c3ccccc3)CC2)ccc1Cl` was run?
A: inconclusive: 2.82 µM [inhibitor, partial curve]

Q: How did the Potency turn out when `Cc1cccc(COCC(Cc2ccccc2)N2CCN(C(=O)c3cccc(C)c3)CCC2=O)c1` (centres undefined) was run?
A: inconclusive: 39.8 µM [inhibitor, single point]

Q: Which “activity, negative = inhibition” value does the source give for `COc1cccc(Nc2nc(-c3cccs3)nc3ccccc23)c1` here?
A: inactive: 9.56%

Q: With `COc1ccc(NC(=O)C2CCN(c3nc4ccccc4[nH]3)CC2)cc1OC` as the molecule, how does the “activity, negative = inhibition” value read?
A: inactive: -9.01%

Q: Which “activity, negative = inhibition” value does the source give for `CC(C)(C)c1cc(C(=O)Nc2ccccc2)ccn1` here?
A: inactive: 1.55%

Q: For `N#CC1=C(N)NC(SCc2ccc(Cl)cc2)=C(C#N)C12CCCCC2`, which Potency is on record?
A: inconclusive: 14.1 µM [inhibitor, partial curve]

Q: With `COCCNC(=O)c1ccc2c(c1)NC(=O)C(CS(=O)(=O)Cc1ccc(F)cc1Cl)N2` (centres undefined) as the molecule, how does the Potency read?
A: inconclusive: 17.8 µM [inhibitor, partial curve]

Q: With `COc1ccc(S(=O)(=O)CCC(=O)Nc2cc(C)ccc2OC)cc1` as the molecule, how does the “activity, negative = inhibition” value read?
A: inactive: 2.8%

Q: How did the Potency turn out when `O=C(O)CSc1cc(NS(=O)(=O)c2cccc([N+](=O)[O-])c2)c2ccccc2c1O` was run?
A: active: 1.78 µM

Q: `Cn1cc(CNCc2ccc(OC(F)(F)F)cc2)c(-c2ccc3c(c2)OCCO3)n1` was tested. Which “activity, negative = inhibition” value did it give?
A: inactive: -17.1%

Q: With `CCC(=O)N(Cc1ccc(S(N)(=O)=O)cc1)C1CC(=O)N(c2ccccc2)C1=O` (centres undefined) as the molecule, how does the “activity, negative = inhibition” value read?
A: inactive: 1.53%

Q: With `O=[N+]([O-])c1ccc(-c2cn(-c3ccccc3)c(=S)[nH]2)cc1` as the molecule, how does the Potency read?
A: inconclusive: 0.891 µM [inhibitor, full curve]

Q: How did the Potency turn out when `Nc1c(C(=O)NCc2ccco2)sc2nc(N3CCOCC3)c3c(c12)CCCC3` was run?
A: inconclusive: 28.2 µM [inhibitor, partial curve]

Q: `O=C1C2=C(Nc3ccccc3SC2c2ccc(C(F)(F)F)cc2)c2ccccc21` (centres undefined) was tested. Which Potency did it give?
A: inconclusive: 14.1 µM [inhibitor, partial curve]

Q: With `CCn1nc(C)cc1C(=O)N1CCCC(CCC(=O)NCc2ccccc2F)C1` (centres undefined) as the molecule, how does the “activity, negative = inhibition” value read?
A: inactive: -2.02%

Q: `c1ccc2c(c1)[nH]c1c(N3CCCC3)ncnc12` was tested. Which “activity, negative = inhibition” value did it give?
A: inactive: -20.1%

Q: Which “activity, negative = inhibition” value does the source give for `N[C@H](C(=O)O)C1C(C(=O)O)C1C(=O)O` (some centres undefined) here?
A: inactive: 7.99%

Q: For `COc1ccc(-c2nc3ccccc3o2)cc1NC(=O)c1ccc(-c2ccc(C)c(Cl)c2)o1`, which Potency is on record?
A: inconclusive: 28.2 µM [inhibitor, single point]

Q: With `CCCC(c1nnnn1Cc1ccc(OC)cc1)N1CCN(c2ccccc2)CC1` (centres undefined) as the molecule, how does the Potency read?
A: inconclusive: 39.8 µM [inhibitor, single point]

Q: Which Potency does the source give for `Cc1ccc(S(=O)(=O)NNc2ccccc2)c(C)c1` here?
A: active: 22.4 µM

Q: With `COc1ccc(NC(=S)Nn2cnnc2)cc1OC` as the molecule, how does the Potency read?
A: inconclusive: 39.8 µM [inhibitor, single point]

Q: With `COC(=O)C1=C(CSc2nc3c(cc2C#N)CN(C)CC3)OC(N)=C(C#N)C1c1ccc(F)cc1` (centres undefined) as the molecule, how does the Potency read?
A: active: 25.1 µM

Q: `COc1ccccc1OCC(O)Cn1c(=N)n(Cc2ccccc2)c2ccccc21` (centres undefined) was tested. Which “activity, negative = inhibition” value did it give?
A: inactive: 6.06%

Q: With `Cc1cccc(NC(=O)CSc2nc3c(oc4ccccc43)c(=O)n2-c2ccccc2)c1C` as the molecule, how does the “activity, negative = inhibition” value read?
A: inactive: -17.4%

Q: Which Potency does the source give for `CCc1cc(=O)oc2cc(C)c3c(-c4ccc(F)cc4)coc3c12` here?
A: inconclusive: 2.82 µM [inhibitor, full curve]

Q: How did the “activity, negative = inhibition” value turn out when `CCOC(=O)c1ccc(-n2c(-c3ccco3)nc3ccccc3c2=O)cc1` was run?
A: inactive: -14.1%

Q: With `COc1ccc(-c2cc(C(=O)N3CC4(C)CC3CC(C)(C)C4)no2)cc1` (centres undefined) as the molecule, how does the “activity, negative = inhibition” value read?
A: inactive: -14.6%

Q: With `O=C(OCC(=O)N1CCc2ccccc21)C1=COCCO1` as the molecule, how does the “activity, negative = inhibition” value read?
A: inactive: 2.58%

Q: `COc1ccc2c(c1)C1=C(CC2)C(c2ccc(C)cc2)NC(=S)N1` (centres undefined) was tested. Which Potency did it give?
A: inconclusive: 15.8 µM [inhibitor, partial curve]

Q: `CC1(C)CC(=O)C2=C(C1)N(Cc1cccnc1)C(=O)C2(NC(=O)c1cccnc1)C(F)(F)F` (centres undefined) was tested. Which “activity, negative = inhibition” value did it give?
A: inactive: 2.25%

Q: How did the Potency turn out when `COc1ccc(-n2c(=S)[nH]c3cc(C(=O)NCc4ccco4)ccc3c2=O)cc1OC` was run?
A: inconclusive: 14.1 µM [inhibitor, partial curve] and inconclusive: 20 µM [inhibitor, partial curve]

Q: How did the Potency turn out when `Cc1cccc(-c2nc(-c3ccc4c(c3)[nH]c(=O)n4C)no2)c1` was run?
A: inconclusive: 3.16 µM [inhibitor, full curve]

Q: How did the Potency turn out when `O=c1oc2ccccc2c(Nc2cccc(O)c2)c1[N+](=O)[O-]` was run?
A: inconclusive: 22.4 µM [inhibitor, partial curve]

Q: For `COc1ccccc1-c1c(C(F)(F)F)oc2c(CN3CCCCC3C)c(O)ccc2c1=O` (centres undefined), which “activity, negative = inhibition” value is on record?
A: inactive: 0.483%

Q: Which Potency does the source give for `CCC(=O)c1ccc(OCC(O)Cn2cnc3ccccc32)cc1` (centres undefined) here?
A: inconclusive: 3.16 µM [inhibitor, full curve]

Q: Which Potency does the source give for `COc1ccc(-c2csc(NC(=O)c3cccs3)c2C(=O)O)cc1OC` here?
A: inconclusive: 15.8 µM [inhibitor, partial curve, poor fit]

Q: Which Potency does the source give for `CC(=O)Oc1ccc2c(=O)c(-c3ccccc3)coc2c1` here?
A: inconclusive: 14.1 µM [inhibitor, single point]

Q: Which Potency does the source give for `Cc1cc(OC(=O)CNC(=O)OC(C)(C)C)c2c(C)cc(=O)oc2c1` here?
A: inconclusive: 5.01 µM [inhibitor, full curve]

Q: Which Potency does the source give for `COC(=O)c1ccc(NC(=O)C(=O)N2CCN(C(=S)NCCc3ccccc3)CC2)cc1` here?
A: inconclusive: 3.98 µM [inhibitor, full curve]

Q: Which “activity, negative = inhibition” value does the source give for `CC(C)CC(=O)NC(=S)Nc1ccc(N2CCCC2)c(Cl)c1` here?
A: inactive: -10.4%

Q: How did the Potency turn out when `COC(=O)c1c(-c2cc(OC)c(OC)c(OC)c2)c2ccc(OCc3ccccn3)cc2c(=O)n1-c1ccc(N)cc1` was run?
A: inconclusive: 17.8 µM [inhibitor, single point]

Q: How did the Potency turn out when `NS(=O)(=O)c1cc(C(=O)N=Nc2c(O)[nH]c3ccccc23)ccc1Cl` was run?
A: active: 14.1 µM

Q: For `Cc1ccc(C(=O)Nc2ccc(C)c(S(=O)(=O)Nc3ccccc3Cl)c2)s1`, which “activity, negative = inhibition” value is on record?
A: inactive: 4.81%

— PubChem BioAssay AID1460 (National Center for Advancing Translational Sciences (NCATS), 2008)
